The campaign covered roughly 420,000 compounds. About 64,000 (15%) were called active. The inconclusive results got no clear call from the source; some entries with a clear call stand among them for comparison. Calls come from the whole dose curve; as a rule, active = well fitted inhibition curve with a large enough effect; inconclusive = small, poorly fitted or top-dose-only effect; inactive = flat fitted curve, though single readings scatter. Potencies of inconclusive entries are left out as doubtful fits.
Assay: qHTS for Inhibitors of human tyrosyl-DNA phosphodiesterase 1 (TDP1): qHTS in cells in absence of CPT; note: nearly all actives have a fitted effect of over 55% in size
Conditions: DT40 Tdp1-/- hTDP1 cells, no CPT, ATP luminescence, 48 h; activity change, negative = growth inhibition: at 46.2 µM (top of the series) unless noted
Summary of the method: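 Growth kinetics read by CellTiter-Glo luminescence after ≥48 hr at 37 °C. Cells: DT40 Tdp1-/- stably carrying human TDP1, 400 per well, compound exposure in the absence of CPT (DMSO vehicle).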
% is set by controls: 0 for no effect and ±100 for the full control effect; potency is the fitted concentration of half-maximal effect; tags give direction and shape of the fitted curve.

Q: For `O=C(NCC1CCCN1S(=O)(=O)c1cccs1)c1ccccc1F` (stereo unspecified), which Potency is on record?
A: inconclusive [inhibitor, single point]

Q: Which activity change, negative = growth inhibition does the source give for `Cc1ccc(N2CCCn3c2cc(C)c(C#N)c3=O)cc1C` here?
A: inconclusive: -35.2% [inhibitor]

Q: For `O=C(c1ccco1)N1CCN(C(=O)c2cn(-c3ccccc3)nc2-c2ccccc2)CC1`, which “activity change, negative = growth inhibition” value is on record?
A: inactive: 0.497%

Q: For `CCOC(=O)c1sc(NC(=O)c2ccccc2OCC)nc1C`, which Potency is on record?
A: inconclusive [inhibitor, single point]

Q: With `Cc1cc(C(=O)Nc2ccon2)ccc1[N+](=O)[O-]` as the compound, how does the “activity change, negative = growth inhibition” value read?
A: inactive: -28.2%

Q: With `CN1OC[C@@H]2CN(Cc3ccccc3)[C@H](c3ccc(-n4ccnc4)cc3)C[C@@H]21` as the compound, how does the “activity change, negative = growth inhibition” value read?
A: inactive: -8.57%

Q: With `COc1ccccc1C(=O)N[C@@H]1c2ccccc2C2(CCN(Cc3ccc(C)o3)CC2)[C@H]1O` as the compound, how does the Potency read?
A: inconclusive [inhibitor, single point]

Q: With `CCOc1ccc2nc(SCC(=O)NCC3CCCO3)sc2c1` (stereo unspecified) as the compound, how does the Potency read?
A: inconclusive [inhibitor, single point]

Q: Which Potency does the source give for `CNc1sc(C(=O)c2ccc(F)cc2)c(N)c1-c1nc2ccccc2s1` here?
A: active: 7.31 µM

Q: With `CNc1snc(C)c1C(=O)OCC(=O)c1cc(F)ccc1OC` as the compound, how does the “activity change, negative = growth inhibition” value read?
A: inactive: -24.1%

Q: Which “activity change, negative = growth inhibition” value does the source give for `CCOC(=O)CSc1nnc(-c2ccc(OC)cc2OC)o1` here?
A: inactive: 1.04%

Q: For `COc1ccccc1OCCNC(=O)c1cc(SC)ccc1Cl`, which Potency is on record?
A: inconclusive [inhibitor, single point]

Q: With `COc1ccc(S[C@@H]2C[C@@H](C(=O)Nc3ccc4nccnc4c3)N(C3Cc4ccccc4C3)C2)cc1` as the compound, how does the Potency read?
A: inconclusive [inhibitor, single point]

Q: Which Potency does the source give for `O=c1[nH]cc(F)c(=O)n1C1OC(CO)C(O)C1O` (stereo unspecified) here?
A: inconclusive [inhibitor, single point]

Q: With `CCOc1cc(C)c(C(C)C)cc1S(=O)(=O)n1ccnc1CC` as the compound, how does the Potency read?
A: inconclusive [inhibitor, single point]

Q: Which “activity change, negative = growth inhibition” value does the source give for `CC(C)c1nnc(NC(=O)CCC(=O)NCc2cccs2)s1` here?
A: inactive: 2.34%

Q: With `COc1cc(C(=O)NCC(c2cccs2)N2CCc3ccccc32)cc(OC)c1OC` (stereo unspecified) as the compound, how does the Potency read?
A: active: 20.6 µM

Q: For `O=C(NNC(=S)NC(=O)c1cccs1)c1ccc(NC(=O)c2ccccc2)cc1`, which Potency is on record?
A: inconclusive [inhibitor, single point]

Q: Which “activity change, negative = growth inhibition” value does the source give for `COc1cc2c(cc1OC)-c1cc(Nc3ccc(C)cc3)nc(=O)n1CC2` here?
A: inactive: -6.57%

Q: For `CCCCNC(=O)c1onc(CSc2ccc(Cl)cc2)c1C(=O)NCCCC`, which Potency is on record?
A: inconclusive [inhibitor, single point]

Q: For `CC(=O)N1CCOc2cc(S(=O)(=O)Nc3cc(C(F)(F)F)ccc3Cl)c(C)cc21`, which “activity change, negative = growth inhibition” value is on record?
A: inactive: -16.4%

Q: Which “activity change, negative = growth inhibition” value does the source give for `O=C1C2C3c4ccccc4C(c4ccccc43)C2C(=O)N1c1cccnc1` (stereo unspecified) here?
A: inactive: 0.338%

Q: With `O=S(=O)(NCCc1csc(-c2cccnc2)n1)c1cccc(F)c1` as the compound, how does the “activity change, negative = growth inhibition” value read?
A: inactive: -16.2%

Q: For `CC1(c2ccc3noc(-c4ccc(F)cc4)c3c2)OCCO1`, which Potency is on record?
A: inconclusive [inhibitor, single point]

Q: With `CC(=O)Nc1ccc(N(CC(=O)NCC2CCCO2)C(=O)CCC(=O)Nc2cc(C)on2)cc1` (stereo unspecified) as the compound, how does the “activity change, negative = growth inhibition” value read?
A: inactive: -18.6%

Q: Which Potency does the source give for `Cc1cc(C)cc(NC(=S)Nc2cccc3cnccc23)c1` here?
A: inconclusive [inhibitor, single point]

Q: Which “activity change, negative = growth inhibition” value does the source give for `Oc1ccc(-c2cn3c(n2)SCC3)cc1` here?
A: inactive: -22.1%

Q: With `O=C(CCC(=O)N(CC(=O)NC1CCCC1)C1CCCCC1)Nc1ccccn1` as the compound, how does the “activity change, negative = growth inhibition” value read?
A: inactive: -0.398%

Q: For `CC(C)c1ccc(Nc2ncccc2C#N)cc1`, which “activity change, negative = growth inhibition” value is on record?
A: inactive: -21.5%

Q: Which “activity change, negative = growth inhibition” value does the source give for `CC(=O)c1cccc(NC(=O)C2CCCN2S(=O)(=O)c2cccs2)c1` (stereo unspecified) here?
A: inactive: 9.55%

Q: For `CC(=O)Nc1sc(N/N=C\c2ccccc2)nc1-c1cccs1`, which Potency is on record?
A: inconclusive [inhibitor, single point]

Q: With `CCSc1ncc(Cl)c(C(=O)N(Cc2ccc(C(C)(C)C)cc2)C2CCS(=O)(=O)C2)n1` (stereo unspecified) as the compound, how does the Potency read?
A: inconclusive [inhibitor, single point]

Q: With `COc1ccc(CN2CCN(c3cc(C)nc4c5c(C)cc(C)nc5nn34)CC2)cc1F` as the compound, how does the Potency read?
A: inconclusive [inhibitor, partial curve]

Q: With `O=C(Nc1ccc(F)c(F)c1)C1CCN(S(=O)(=O)c2cccc3nonc23)CC1` as the compound, how does the Potency read?
A: inconclusive [inhibitor, single point]

Q: With `O=C(NCC(c1ccccc1Cl)N1CCCC1)c1ccc(N2CCCC2=O)cc1` (stereo unspecified) as the compound, how does the “activity change, negative = growth inhibition” value read?
A: inactive: -10.3%

Q: For `CCOC(=O)NC(=O)CSc1nc(C)cc(C(F)(F)F)c1C#N`, which “activity change, negative = growth inhibition” value is on record?
A: inactive: -25.7%

Q: For `Cc1c(C=O)c2ccccn2c1C(=O)c1cccs1`, which Potency is on record?
A: inconclusive [inhibitor, single point]

Q: For `CC(C)(C)c1cc(OC(=O)c2ccccc2F)ccc1O`, which Potency is on record?
A: inconclusive [inhibitor, partial curve]

Q: Which Potency does the source give for `CCCCCCCCN1C(=O)[C@H](CC(=O)NCCCCc2ccccc2)C[C@@]2(C(=O)OC)CC(C)(C)CC=C12` here?
A: active: 20.6 µM

Q: Which Potency does the source give for `Cc1ccc(/C(O)=C2/C(=O)C(=O)N(CC(=O)O)C2c2ccc([N+](=O)[O-])cc2)cc1` (stereo unspecified) here?
A: inconclusive [inhibitor, partial curve]

Q: Which Potency does the source give for `COc1ccc(S(=O)(=O)Nc2ccc(F)cc2)cc1N(C)S(=O)(=O)c1ccc(Cl)cc1` here?
A: inconclusive [inhibitor, single point]

Q: For `O=C(NNC(=O)c1cc(OCC(F)(F)F)ccc1OCC(F)(F)F)c1ccc(Cl)c(Cl)c1`, which Potency is on record?
A: inconclusive [inhibitor, single point]

Q: For `CCOC(=O)c1cccc(NC(=O)Nc2ccc3c(c2)N(C)C(=O)c2ccccc2S3)c1`, which Potency is on record?
A: inconclusive [inhibitor, single point]

Q: Which Potency does the source give for `CN(C)c1ccc(/C=C/c2cc3ccccc3c[n+]2C)cc1` here?
A: active: 0.1 µM

Q: Which Potency does the source give for `N#CCC(=O)NCCCOC(=O)Nc1ccc(Cl)c(Cl)c1` here?
A: inconclusive [inhibitor, partial curve, poor fit]

Q: For `CC1(C(=O)NS(=O)(=O)C2CC2)CCCN(C(=O)CSc2ccccc2)C1` (stereo unspecified), which Potency is on record?
A: inconclusive [inhibitor, single point]

Q: For `COc1ccc(-c2nnc(SC(C)C(=O)Nc3nccs3)n2Cc2ccccc2)cc1OC` (stereo unspecified), which Potency is on record?
A: inconclusive [inhibitor, single point]

Q: For `CCC1C(=O)NCCN1Cc1ccc2c(c1)CN(Cc1ccc(OC)cc1OC)CCO2` (stereo unspecified), which Potency is on record?
A: inconclusive [inhibitor, partial curve]

Q: For `O=C(COC(=O)CSc1ccccc1)NCCNC(=O)COC(=O)CSc1ccccc1`, which Potency is on record?
A: inconclusive [inhibitor, single point]

Q: With `O=C(Nc1ccc(Cl)cc1)c1cccc(OC(=S)N2CCOCC2)c1` as the compound, how does the Potency read?
A: inconclusive [inhibitor, single point]

Q: For `O=C(CCCN1CCC(O)(c2cccc(C(F)(F)F)c2)CC1)c1ccc(F)cc1`, which Potency is on record?
A: inconclusive [inhibitor, single point]

Q: What about the activity change, negative = growth inhibition of the same compound?
A: inconclusive: -30.9% [inhibitor]

Q: For `CC(C)CC(=O)Nc1ccc(S(=O)(=O)Nc2nccs2)cc1`, which “activity change, negative = growth inhibition” value is on record?
A: inactive: 11.8%

Q: For `CC1CN(C(=O)c2cccc(S(=O)(=O)Nc3ccccc3Cl)c2)CC(C)O1` (stereo unspecified), which “activity change, negative = growth inhibition” value is on record?
A: inactive: 4.04%

Q: Which Potency does the source give for `CCC(=O)Nc1ccc(S(=O)(=O)c2ccc(NC(=O)CC)cc2)cc1` here?
A: inconclusive [inhibitor, partial curve]

Q: With `O=C(c1ccccc1)c1ccc(Cn2cc(CCCO)nn2)cc1` as the compound, how does the Potency read?
A: active: 5.8 µM

Q: With `C[C@H]1CN([C@@H](C)CO)C(=O)CCCn2nncc2CO[C@@H]1CN(C)C(=O)NC1CCCCC1` as the compound, how does the “activity change, negative = growth inhibition” value read?
A: inactive: 15.1%

Q: For `Cc1ccc(NS(=O)(=O)c2ccc(C)c(C(=O)NCC(c3ccccc3)N(C)C)c2)cc1` (stereo unspecified), which Potency is on record?
A: inconclusive [inhibitor, single point]

Q: Which Potency does the source give for `[O-][n+]1onc2c1CCc1[nH]c(-c3ccccc3)nc1-2` here?
A: inconclusive [inhibitor, partial curve]

Q: With `CN(CC(=O)Nc1ccc(F)c(F)c1F)C(=O)c1ccc2c(c1)NC(=O)CS2` as the compound, how does the Potency read?
A: inconclusive [inhibitor, single point]

Q: With `COc1ccccc1N1CCN(C(CNS(=O)(=O)c2cccs2)c2cccnc2)CC1` (stereo unspecified) as the compound, how does the Potency read?
A: inconclusive [inhibitor, single point]

Q: Which Potency does the source give for `COCCNC(=O)[C@@]1(C)C=C[C@@H](Cc2ccccc2)N1C(=O)c1ccccc1` here?
A: inconclusive [inhibitor, single point]

Q: With `COc1cc2c(cc1NC(=S)Nc1ccccc1C)oc1ccccc12` as the compound, how does the Potency read?
A: inconclusive [inhibitor, partial curve, poor fit]

Q: Which Potency does the source give for `O=C(NCCCN1CCN(c2ccccc2F)CC1)C1COc2ccccc2C1` (stereo unspecified) here?
A: inconclusive [inhibitor, single point]

Q: For `COCCOc1cc(-n2ccnc2SC)c(Cl)cc1Cl`, which Potency is on record?
A: inconclusive [inhibitor, partial curve]

Q: Which activity change, negative = growth inhibition does the source give for `CC(C)CNC(=O)C1(C)CCCCCN1C(=O)c1cc2ccccc2s1` (stereo unspecified) here?
A: inconclusive: -21.1% [inhibitor]

Q: Which Potency does the source give for `CCCCN1C2=C(C(=O)CCC2)C(c2ccc(Cl)c(Cl)c2)C2=C1c1ccccc1C2=O` (stereo unspecified) here?
A: inconclusive [inhibitor, single point]

Q: With `CSc1ncccc1C(=O)N1CCCC(N2CCN(c3ccccc3C)CC2)C1` (stereo unspecified) as the compound, how does the Potency read?
A: active: 9.2 µM

Q: With `COc1ccc2c(c1)C1(Nc3ccccc3-c3nc4ccccc4n31)C(=O)N2` (stereo unspecified) as the compound, how does the “activity change, negative = growth inhibition” value read?
A: inactive: -13.5%

Q: For `O=[N+]([O-])c1cccc(/C([O-])=C(/C(=S)Nc2ccccc2)[n+]2ccccc2)c1`, which Potency is on record?
A: inconclusive [inhibitor, single point]

Q: For `C/C=C(\C)CN1CCC(Oc2cc(C(=O)NC3CC3)ccc2OC)CC1`, which “activity change, negative = growth inhibition” value is on record?
A: inactive: -0.388%

Reference: PubChem BioAssay AID686978 (National Center for Advancing Translational Sciences (NCATS), 2013)
